Reference: ChEMBL document CHEMBL4888484, “Replenishing the malaria drug discovery pipeline: Screening and hit evaluation of the MMV Hit Generation Library 1 (HGL1) against asexual blood stage Plasmodium falciparum ,using a nano luciferase reporter read-out” (2022)
Hit rate of the full screen: of about 150,000 compounds, about 540 (0.36%) showed an effect of 50% or more. This is one part of the list.

Tested on: Plasmodium falciparum
Assay: Primary screen in NF54 nanoGlo assay, in single point, at 2uM, 72h; a lower Z score goes with more inhibition
Type: functional, Erythrocyte
Conditions: timepoint 72 hour

SMILES	% Inhibition [%]	Z score
OCCOc1cccc(CN2CCO[C@H]3CCCC[C@@H]32)c1	-3	0.43
COc1ccncc1CNC(=O)N1CCC[C@H](C2CCCC2)C1	1	-0.06
COc1ccc([C@H]2N(c3ccc(OC)cc3)C(=O)[C@@H]3CCCN32)cc1	-7	0.98
O=C(CN1CCOCC1)N1CCCC[C@@H]1CCc1ccccc1	-9	1.71
CC(C)(CNCC1(CO)CC1)c1ccccc1	1	-0.08
O=C(c1cn(C[C@H]2CCCO2)nn1)N1CCCCCCC1	-11	1.01
CC(C)CC(C)S(=O)(=O)NC(=O)C1Cc2ccccc21 (stereo unspecified)	-7	0.55
Cc1ccc(N[C@@](C)(C(=O)NCCc2ccccn2)c2ccccc2)cc1	-3	0.57
Cc1cc(=O)[nH]c(NCCNc2cc(C)nc3ccnn23)n1	2	-0.44
COCCn1ccc2c(NC(=O)CC[C@@H](C)[C@H]3CC[C@H]4[C@@H]5[C@H](O)C[C@@H]6C[C@H](O)CC[C@]6(C)[C@H]5C[C@H](O)[C@]34C)cccc21	4	-0.48
O=C(Nc1cccc(C(F)(F)F)c1F)N[C@H]1COC[C@@H]1N1CCOCC1	-6	1.2
Cc1ccc2cc(CN3CCC(OC4CCOCC4)CC3)ccc2n1	-11	1.28
CC(=O)NCCCS(=O)(=O)[C@@H](C)c1ccc(Cl)c(Cl)c1	-4	0.56
O=C(CCc1ccsc1)NS(=O)(=O)C1CCCC1	-3	0.28
Cc1c[nH]c(C(=O)NCCc2nc(C3CC3)no2)n1	0	0.01
O=C(CCC(F)(F)F)Nc1nc(-c2ccncc2)ns1	-20	1.77
O=C(N[C@H]1CCOC2(CCCCC2)C1)c1cc(C(F)(F)F)no1	12	-1.35
CCCCN(C(=O)[C@@H]1CCN1)C1CCCCCC1	-2	0.47
Cc1ccc2sc(CN(C)c3ccc(C(=O)N4CCOCC4)cc3C)nc2c1	-5	0.75
O=C1NC2(CCN(S(=O)(=O)c3ccc(F)c(Cl)c3)CC2)N=C1c1ccccc1	-5	0.58
Cc1cccc([C@H]2NCCc3sccc32)n1	46	-5.16
COCCC(C)NC(=O)N(C)CC1CCCCC1O (stereo unspecified)	-3	0.35
CC1(C)COCCN1CCNS(=O)(=O)C1C[C@@H]2CC[C@H]1C2 (stereo partly specified)	-11	2.04
